This is an account of results in article PMC7529893, “Structural basis for substrate recognition and chemical inhibition of oncogenic MAGE ubiquitin ligases” (Nature Communications, 2020).

Assay [1] addresses MAGE-A11 MHD (218-429), as part of the crystallised fusion (human) (UniProt P43364). Nature of the assay: crystal structure; PCF11 677-701 fused by GGSGRP to the N-terminus of MAGE-A11 MHD 218-429; sitting drop, 20 °C, 0.2 M Na acetate, 0.1 M Bis Tris propane pH 7.5, 20% PEG 3350; four protomers in the P 1 cell; both purified.
Assay [2] concerns the target MAGE-A11 in cell lysates (co-IP for dimer formation, Supplementary Fig. 2a) (human) (UniProt P43364). Kind of assay: co-IP; cell lysates (Supplementary Fig. 2a); constructs not given.
The next assay has as its target T1, Myc-MAGE-F1 F129A (UniProt Q9HAY2).
T1 sequence: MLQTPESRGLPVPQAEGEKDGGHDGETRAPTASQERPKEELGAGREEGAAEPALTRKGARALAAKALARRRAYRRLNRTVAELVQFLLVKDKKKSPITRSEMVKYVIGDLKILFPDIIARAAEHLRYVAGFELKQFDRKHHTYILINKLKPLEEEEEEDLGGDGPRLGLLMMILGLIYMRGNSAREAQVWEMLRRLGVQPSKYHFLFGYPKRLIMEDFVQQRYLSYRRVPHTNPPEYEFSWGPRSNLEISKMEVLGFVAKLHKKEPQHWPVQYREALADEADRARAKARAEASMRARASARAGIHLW
Kind of assay: co-IP; HEK293FT cells transfected with the indicated constructs for 48 h; IP with anti-Myc, immunoblot; in Fig. 5i lysates were incubated with 100 µM SJ521054 or SJ1008066 for 24 h. On the technique in general: Immunoblotting shows a protein as a band on a membrane.

Another assay concerns the target T2, Myc-MAGE-F1 L196R (UniProt Q9HAY2).
T2 sequence: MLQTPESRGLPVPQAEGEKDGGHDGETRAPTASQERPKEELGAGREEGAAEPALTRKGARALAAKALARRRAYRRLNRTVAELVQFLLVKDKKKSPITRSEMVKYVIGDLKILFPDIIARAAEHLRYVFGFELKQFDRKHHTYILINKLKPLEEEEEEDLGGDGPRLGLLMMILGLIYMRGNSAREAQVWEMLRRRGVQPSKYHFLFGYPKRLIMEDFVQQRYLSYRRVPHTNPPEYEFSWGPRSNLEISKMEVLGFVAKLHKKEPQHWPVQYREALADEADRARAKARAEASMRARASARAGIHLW
Described as above.

In a further assay the target is T3, Myc-MAGE-F1 W269A (UniProt Q9HAY2).
T3 sequence: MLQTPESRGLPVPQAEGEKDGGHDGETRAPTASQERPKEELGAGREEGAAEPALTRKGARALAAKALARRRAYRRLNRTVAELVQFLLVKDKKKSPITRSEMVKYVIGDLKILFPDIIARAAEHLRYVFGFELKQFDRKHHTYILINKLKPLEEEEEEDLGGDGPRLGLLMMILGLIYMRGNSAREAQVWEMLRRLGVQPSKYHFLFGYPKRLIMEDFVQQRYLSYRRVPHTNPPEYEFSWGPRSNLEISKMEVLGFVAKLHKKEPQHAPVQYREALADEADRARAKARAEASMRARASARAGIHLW
Described as above.

A further assay has as its target T4, Myc-MAGE-F1 wild-type (UniProt Q9HAY2).
T4 sequence: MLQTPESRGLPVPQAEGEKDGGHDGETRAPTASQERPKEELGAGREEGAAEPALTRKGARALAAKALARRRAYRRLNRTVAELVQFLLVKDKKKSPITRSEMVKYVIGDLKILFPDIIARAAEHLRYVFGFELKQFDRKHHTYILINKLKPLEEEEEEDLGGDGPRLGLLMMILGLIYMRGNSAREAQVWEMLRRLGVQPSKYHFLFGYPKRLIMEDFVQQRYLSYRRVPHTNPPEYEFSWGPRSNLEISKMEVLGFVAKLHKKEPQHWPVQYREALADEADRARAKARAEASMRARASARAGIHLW
The description is as above.

These are yes or no findings as the source states them, for the method shown. For part of these data: In cells and extracts the contact can be indirect. Some results given as binding are weak or reduced against the parent protein; the word gives no strength. For part of these data: Where a sequence is shown, tags or fusion partners need not be part of it.

B1: MAGE-A11 MHD (218-429), as part of the crystallised fusion (domain or fragment, UniProt P43364 218-429)
chain: SQDILHDKIIDLVHLLLRKYRVKGLITKAEMLGSVIKNYEDYFPEIFREASVCMQLLFGIDVKEVDPTSHSYVLVTSLNLSYDGIQCNEQSMPKSGLLIIVLGVIFMEGNCIPEEVMWEVLSIMGVYAGREHFLFGEPKRLLTQNWVQEKYLVYRQVPGTDPACYEFLWGPRAHAETSKMKVLEYIANANGRDPTSYPSLYEDALREEGEGV
With B1, the binding result in assay [1] was “no binding”.

B2: MAGE-A11 in cell lysates (co-IP for dimer formation, Supplementary Fig. 2a) (protein, UniProt P43364 1-429)
chain: METQFRRGGLGCSPASIKRKKKREDSGDFGLQVSTMFSEDDFQSTERAPYGPQLQWSQDLPRVQVFREQANLEDRSPRRTQRITGGEQVLWGPITQIFPTVRPADLTRVIMPLEQRSQHCKPEEGLQAQEEDLGLVGAQALQAEEQEAAFFSSTLNVGTLEELPAAESPSPPQSPQEESFSPTAMDAIFGSLSDEGSGSQEKEGPSTSPDLIDPESFSQDILHDKIIDLVHLLLRKYRVKGLITKAEMLGSVIKNYEDYFPEIFREASVCMQLLFGIDVKEVDPTSHSYVLVTSLNLSYDGIQCNEQSMPKSGLLIIVLGVIFMEGNCIPEEVMWEVLSIMGVYAGREHFLFGEPKRLLTQNWVQEKYLVYRQVPGTDPACYEFLWGPRAHAETSKMKVLEYIANANGRDPTSYPSLYEDALREEGEGV
Regarding B2, the binding entry in assay [2] was “no binding”.

B3: NSE1 (enzyme, UniProt Q8WV22 1-266)
chain: MQGSTRRMGVMTDVHRRFLQLLMTHGVLEEWDVKRLQTHCYKVHDRNATVDKLEDFINNINSVLESLYIEIKRGVTEDDGRPIYALVNLATTSISKMATDFAENELDLFRKALELIIDSETGFASSTNILNLVDQLKGKKMRKKEAEQVLQKFVQNKWLIEKEGEFTLHGRAILEMEQYIRETYPDAVKICNICHSLLIQGQSCETCGIRMHLPCVAKYFQSNAEPRCPHCNDYWPHEIPKVFDPEKERESGVLKSNKKSLRSRQH
Turning to B3, the binding result with Myc-MAGE-F1 F129A, in the assay with Myc-MAGE-F1 L196R, in the assay with Myc-MAGE-F1 W269A and in the assay with Myc-MAGE-F1 wild-type was “binds” in each case.
